# Article PMC4336329 (PLoS ONE, 2015)
# About 14,000 (4.5%) of roughly 310,000 compounds showed an effect of 50% or more. The effect is printed as a negative number. The list shows a part of the results.
# Target: human ether-à-go-go-related gene (hERG) potassium channel (human, UniProt Q12809)
# Assay: primary screen, population patch clamp on CHO cells stably expressing hERG
# 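Note: peak tail current of the secondary pulse compared with the same well before compound.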
# Chain of human ether-à-go-go-related gene (hERG) potassium channel (Q12809 whole entry, looked up): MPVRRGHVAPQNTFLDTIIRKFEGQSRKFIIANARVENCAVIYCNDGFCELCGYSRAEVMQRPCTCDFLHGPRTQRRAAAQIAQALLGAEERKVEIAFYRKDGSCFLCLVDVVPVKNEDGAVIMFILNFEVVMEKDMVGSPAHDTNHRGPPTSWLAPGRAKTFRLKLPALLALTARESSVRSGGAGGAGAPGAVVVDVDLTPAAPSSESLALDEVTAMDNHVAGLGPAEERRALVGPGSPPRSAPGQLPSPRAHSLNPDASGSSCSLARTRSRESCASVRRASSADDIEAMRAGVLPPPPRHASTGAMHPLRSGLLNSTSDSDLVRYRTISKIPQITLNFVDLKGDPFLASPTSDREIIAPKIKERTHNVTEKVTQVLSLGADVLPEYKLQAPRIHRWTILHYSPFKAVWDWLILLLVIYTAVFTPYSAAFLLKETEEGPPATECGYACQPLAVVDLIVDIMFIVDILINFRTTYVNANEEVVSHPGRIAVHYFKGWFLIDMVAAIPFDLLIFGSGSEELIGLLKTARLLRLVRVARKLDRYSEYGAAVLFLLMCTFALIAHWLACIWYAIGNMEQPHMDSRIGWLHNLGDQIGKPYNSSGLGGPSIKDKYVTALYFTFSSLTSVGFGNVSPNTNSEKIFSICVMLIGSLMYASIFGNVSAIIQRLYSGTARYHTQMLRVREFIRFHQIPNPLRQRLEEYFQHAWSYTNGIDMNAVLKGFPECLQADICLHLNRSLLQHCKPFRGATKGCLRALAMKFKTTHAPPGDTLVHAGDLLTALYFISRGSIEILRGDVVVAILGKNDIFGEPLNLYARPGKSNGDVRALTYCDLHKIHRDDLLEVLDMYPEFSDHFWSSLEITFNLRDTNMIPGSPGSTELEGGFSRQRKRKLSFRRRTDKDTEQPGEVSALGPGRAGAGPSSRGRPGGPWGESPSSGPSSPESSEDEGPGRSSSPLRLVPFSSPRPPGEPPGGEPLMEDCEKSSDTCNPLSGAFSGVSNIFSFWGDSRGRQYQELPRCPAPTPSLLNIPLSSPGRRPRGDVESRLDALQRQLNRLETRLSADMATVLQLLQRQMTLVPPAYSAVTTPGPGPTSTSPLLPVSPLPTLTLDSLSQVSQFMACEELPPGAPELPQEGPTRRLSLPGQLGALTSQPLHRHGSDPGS
row,Compound,"hERG current change (%, negative = inhibition) at 10uM [%]"
1,Cc1cccc(CN2CCN(CC(=O)NCc3ccc(F)cc3)C2=O)c1,-13.6
2,O=C(CNCCc1ccc(Cl)cc1Cl)NCc1ccco1,-27.2
3,O=C(NCCc1ccc(S(=O)(=O)N2CCCC2)cc1)c1cccs1,-3.23
4,CCOc1ccc(C(=O)Nc2cc(C)ccn2)cc1,-12.2
5,CCC1CN(C(=O)N2CCC(C(=O)NCCc3ccc(OC)cc3OC)CC2)c2ccccc2O1 (stereo not shown),-17.3
6,O=C(CNS(=O)(=O)c1ccccc1)Nc1ccc2c(c1)OCO2,16
7,O=C(N/N=C/c1cc(Br)ccc1O)c1cccc(N2CCCC2=O)c1,-3.08
8,C[n+]1ccccc1/C=C/c1c(F)cccc1F.[I-],18.4
9,COc1ccc(NC(=O)CC2C(=O)N(c3cccc(OC)c3)C(=O)N2CCC(C)C)cc1 (stereo not shown),-2.85
10,CC(C)c1ccc(NC(=O)CCNS(=O)(=O)c2cccc3nsnc23)cc1,-3.65
11,O=C(O)CCC(=O)N1CCN(c2cccc(Cl)c2)CC1,12
12,CCOc1ccccc1N(C(=O)Nc1ccc(Cl)cc1)C1=NCCS1,10.6
13,Cc1cc(C(=O)Nc2c(C)n(C)n(-c3ccccc3)c2=O)cs1,-1.85
14,O=C(c1cc2ccccc2o1)N1CCC(N2CCC(C(=O)N3CCCC3)CC2)CC1,-55.7
15,O=C(NCCO)c1ccc2nc(Cc3cccc(Cl)c3)oc2c1,-0.51
16,CCOC(=O)C(Oc1ccc2c(-c3ccc(OC)cc3)cc(=O)oc2c1C)c1ccccc1 (stereo not shown),-2.92
17,O=Cc1c[nH]c2ccc(S(=O)(=O)N3CCOCC3)cc12,-10.1
18,CN(C)CCCn1c(SCC(=O)Nc2nc(-c3cccc(Br)c3)cs2)nc2ccccc2c1=O,-20.2
19,O=[N+]([O-])c1ccc(Cl)cc1NCc1cccnc1,4.83
20,COc1[nH]c(/N=C/c2ccccc2)c(C#N)c1C#N,21.2
21,O=C(Cc1ccccc1)Nc1ccnn1C1CCN(Cc2ccc(CO)o2)CC1,8.53
22,C#CCn1c(=NC(=O)c2ccc(S(=O)(=O)N3CCCc4ccccc43)cc2)sc2cc(S(N)(=O)=O)ccc21,-0.904
23,CCOC(=O)C1=C(C)N=c2s/c(=C/c3ccc(OCC(=O)O)cc3)c(=O)n2C1c1ccc(F)cc1 (stereo not shown),15.2
24,CC(C)C(=O)N1CCN(c2ccccc2NC(=O)c2ccc([N+](=O)[O-])o2)CC1,-63
25,CCc1ccc(OCC(=O)Nc2ccc(S(=O)(=O)Nc3ccccn3)cc2)cc1,8.72
26,CC(=O)NC(Cc1ccc(C)cc1)C(=O)NC1CCN(C(=O)c2ccc([N+](=O)[O-])cc2)CC1 (stereo not shown),-23.2
27,Cc1ccc(-c2nn3c(C)nnc3c3ccccc23)cc1S(=O)(=O)NCc1ccccc1,-29.5
28,CCOCCCNC(=O)/C(C#N)=C/c1ccc(C(=O)OC)cc1,-17

row,Compound,"hERG current change (%, negative = inhibition) at 10uM [%]"
1,O=C(O)c1ccc(Nc2nc3c(s2)CCCC3)cc1,-81.3
2,COC(=O)C(NC(=O)CCc1nnc2ccc(N3CCCCC3)nn12)C(C)C (stereo not shown),-0.109
3,Cn1c(=O)c(C(=O)COC(=O)c2cc(-c3ccccc3)nc3ccccc23)c(N)n(Cc2ccccc2)c1=O,6.8
4,C/C(=N\NC(=O)c1ccn(C)n1)c1ccc(NC(=O)C2CCCC2)cc1,4.84
5,CCNC(=O)Nc1cc2nc(C)n(Cc3ccc(Br)cc3)c2nc1C,-0.223
6,CC(C)C(NS(=O)(=O)c1ccccc1)C(=O)N1CCCC1 (stereo not shown),21.4
7,Cc1cccc(NC2=C(C#N)C(=O)NC3(CCCC3)S2)c1,0.0945
8,Cc1ccc(NCc2nnc(SCC#N)o2)c(C)c1,-2.24
9,CCN(CC)Cc1c(O)ccc2c(-c3ccccc3)cc(=O)oc12,-22.9
10,CCCCN1C(=O)C(=O)N(CC(=O)Nc2sc(C)c(CC)c2C(=O)OCC)C1=O,12.2
11,CC(C(=O)NC1CC1)c1ncc(C(F)(F)F)cc1Cl (stereo not shown),13.6
12,Cc1ccc2nc(NC(=O)CNS(=O)(=O)c3ccc(Br)s3)sc2c1,1.51
13,CCc1ccc(-c2cc(C)no2)cc1S(=O)(=O)NCCc1ccc(S(N)(=O)=O)cc1,-16.6
14,Cc1cc(NCCCO)n2c(nc3ccccc32)c1C#N,4.18
15,NC(=O)NOCc1ccccc1F,11.3
16,COc1cccc(OCc2cc(C(=O)N3CCN(C(=O)c4ccco4)CC3)no2)c1,-51.7
17,COc1ccc2c(c1)CCc1c(C(=O)NCc3ccc(F)cc3)noc1-2,11.6
18,CCCn1c(SCC(=O)Nc2nc(C)c(C(=O)OC)s2)nnc1C(C)C,-18
19,COc1ccccc1NS(=O)(=O)c1ccc2c(c1)N(C(C)=O)CC(C)S2 (stereo not shown),-16.2
20,O=C(O)CC/C(=C\c1ccccc1[N+](=O)[O-])c1nc2ccccc2s1,8.96
21,CCOC(=O)c1cn(CC)c2cc(N3CCCCC3)c(F)cc2c1=O,-2.96
22,O=[N+]([O-])c1cccc(NNS(=O)(=O)c2ccccc2F)c1,-29.4
23,CC1=CC=CC2=N/C(=N\S(=O)(=O)c3ccc(F)cc3F)c3ccccc3CN12,-20.3
24,CN(C)c1ccc(N=Cc2ccco2)cc1,-0.214
25,CC(=O)N1CCCc2ccc(NS(=O)(=O)c3ccccc3)cc21,11.1
26,CCN(CC)C(=O)Cn1cc(S(=O)(=O)CC(=O)Nc2ccc(F)cc2F)c2ccccc21,-3.36
27,O=C(Nc1nccs1)c1ccc(NC(=O)c2ccco2)cc1,-7.05
